According to PubChem BioAssay AID1460 (National Center for Advancing Translational Sciences (NCATS), 2008):
Hit rate of the full screen: of about 270,000 compounds, about 5,800 (2.1%) were called active. The inconclusive results got no clear call from the source; some entries with a clear call stand among them for comparison. The call rests on the fitted dose curve; in most records, active means well fitted inhibition curve with a large enough effect; inconclusive means small, poorly fitted or top-dose-only effect; inactive means flat fitted curve, though single readings scatter. Where the call is inconclusive, the potency comes from a doubtful curve fit.

Target: Microtubule-associated protein tau (Homo sapiens) (UniProt P10636)
Assay: qHTS for Inhibitors of Tau Fibril Formation, Thioflavin T Binding; further: nearly all actives have a fitted effect of over 55% in size
Conditions: recombinant tau K18 P301L, heparin-induced fibrillization, ThT fluorescence; series mostly up to 57.4 µM
Outline: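 Fibril formation assay: tau K18 P301L at 15 uM with trace Alexa 594 label, heparin inducer 20 uM, pH 7 sodium acetate buffer, 37 C for 6 hr; endpoint ThT signal.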
Potency means the concentration at half of the fitted maximal effect; tags describe the fitted curve by direction and shape.

UniProt P10636, sequence (P10636 whole entry, looked up): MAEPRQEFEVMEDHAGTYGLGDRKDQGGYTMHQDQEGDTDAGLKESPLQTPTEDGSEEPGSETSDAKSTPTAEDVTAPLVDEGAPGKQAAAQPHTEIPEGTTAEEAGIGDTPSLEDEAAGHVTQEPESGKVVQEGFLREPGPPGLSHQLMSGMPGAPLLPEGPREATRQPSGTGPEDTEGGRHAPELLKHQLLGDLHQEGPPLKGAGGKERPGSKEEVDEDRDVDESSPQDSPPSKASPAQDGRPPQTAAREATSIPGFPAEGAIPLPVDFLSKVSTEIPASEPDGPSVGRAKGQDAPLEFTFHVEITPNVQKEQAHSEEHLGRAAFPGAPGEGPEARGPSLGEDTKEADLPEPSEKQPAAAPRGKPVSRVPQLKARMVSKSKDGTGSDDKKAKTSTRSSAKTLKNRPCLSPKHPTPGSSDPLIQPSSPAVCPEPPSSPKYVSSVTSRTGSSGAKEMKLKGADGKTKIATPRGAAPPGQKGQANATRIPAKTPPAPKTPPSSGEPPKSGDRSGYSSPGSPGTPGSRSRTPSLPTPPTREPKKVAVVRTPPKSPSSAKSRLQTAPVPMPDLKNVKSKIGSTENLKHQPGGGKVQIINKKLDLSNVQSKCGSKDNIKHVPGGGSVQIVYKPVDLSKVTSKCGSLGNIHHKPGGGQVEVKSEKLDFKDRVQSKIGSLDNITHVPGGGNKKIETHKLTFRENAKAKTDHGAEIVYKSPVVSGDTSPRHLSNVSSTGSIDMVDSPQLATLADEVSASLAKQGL

Row | Structure (SMILES) | Potency
1 | CCOC(=O)/C=C/C(=O)OCC(=O)Nc1ccc([N+](=O)[O-])cc1 | inconclusive: 10 µM [inhibitor, partial curve, poor fit]
2 | Cc1ccc2nc(/C(C#N)=C\c3ccc([N+](=O)[O-])o3)[nH]c2c1 | active: 8.91 µM
3 | COc1ccc(/C(O)=C/c2nc3ccccc3n(-c3ccccc3)c2=O)cc1 | inconclusive: 3.16 µM [inhibitor, single point]
4 | CCSC(C)CC1CC(=O)CC(=O)C1 (stereo not drawn) | inconclusive: 8.91 µM [inhibitor, partial curve]
5 | COc1ccc(Nc2nc3ccc(C)cc3cc2C#N)c(OC)c1 | inactive
6 | CCOC(=O)c1sc2ccccc2c1S(=O)(=O)NCc1ccc(F)cc1 | inconclusive: 39.8 µM [inhibitor, single point]
7 | CC(=O)Nc1nnc(SCc2ccc(C(=O)Nc3ccccc3F)cc2)s1 | inactive
8 | COC(=O)c1cnc(N2CCN(c3ccccc3OC)CC2)c2ccccc12 | inconclusive: 15.8 µM [inhibitor, partial curve]
9 | COc1ccc(OCCC(=O)OCC(=O)NCc2ccco2)cc1 | inconclusive: 31.6 µM [inhibitor, single point]
10 | COc1ccc(-c2cn3c(C)c(C(=O)NCCN4CCOCC4)sc3n2)cc1 | inconclusive: 14.1 µM [inhibitor, partial curve, poor fit]
11 | N/C(=N\OC(=O)CCCOc1ccc(Cl)cc1Cl)c1ccncc1 | inconclusive: 12.6 µM [inhibitor, partial curve]
12 | C=C(C)[C@@H]1CCC2(C(=O)O)CC[C@]3(C)[C@H](CC[C@@H]4[C@@]5(C)CCC(=O)C(C)(C)[C@@H]5CC[C@]43C)[C@@H]12 (stereo partly drawn) | inactive
13 | C/C(=N\NC(=O)c1cccc(N/N=C(\C)c2ccc([N+](=O)[O-])cc2)c1)c1ccc([N+](=O)[O-])cc1 | active: 0.501 µM
14 | CCc1ccccc1NC(=S)NN | inconclusive: 35.5 µM [inhibitor, single point]
15 | CC(C)c1ccc(-c2nc3ccccc3s2)cc1 | inconclusive: 3.98 µM [inhibitor, full curve]
16 | Cc1occc1C(=O)N/N=C/c1ccc(OCc2ccccc2)cc1 | inconclusive: 3.55 µM [inhibitor, full curve, poor fit]
17 | CCSc1nc(-c2ccc(Cl)cc2)nc2c1Cc1c(CO)cnc(C)c1O2 | inactive
18 | O=C(CCCCCCN1C(=O)c2ccccc2C1=O)Nc1nccs1 | inactive
19 | N#C/C(=N\Nc1ccccc1)C(=N)N1CCCCC1 | inconclusive: 22.4 µM [inhibitor, partial curve]
20 | Cc1sc2c(c1C)CN(C1CC(C)(C)NC(C)(C)C1)CN2C(=O)c1ccco1 | inconclusive: 17.8 µM [inhibitor, partial curve]
21 | CCOc1ccccc1OCC(=O)NCc1ccco1 | inconclusive: 20 µM [inhibitor, partial curve]
22 | ClCc1csc(-c2ccc(Cl)cc2)n1 | inactive
23 | Cc1ccc(C(=O)N/C(=C\c2ccco2)C(=O)NCCCn2ccnc2)cc1C | inconclusive: 25.1 µM [inhibitor, single point]

Row | Structure (SMILES) | Potency
24 | O=C(NCc1ccc(Cl)cc1)c1ccc2c(c1)NC(=O)C(CS(=O)(=O)Cc1ccccc1Cl)N2 (stereo not drawn) | inconclusive: 20 µM [inhibitor, partial curve]
25 | Cc1cc2[nH]c(=O)c3ccccc3n2n1 | inactive
26 | Cc1cccc(C)c1Nc1nnc(SCC(=O)Nc2sccc2C#N)s1 | inconclusive: 25.1 µM [inhibitor, single point]
27 | CC1C/C(=N/Nc2nc3ccccc3[nH]2)CC(C)(C)C1 (stereo not drawn) | inconclusive: 22.4 µM [inhibitor, single point]
28 | O=C(c1ccc(Cl)s1)N1CCN(c2nc3ccccc3s2)CC1 | inconclusive: 1.26 µM [inhibitor, full curve]
29 | COc1cc(/C=C2\C(=N)N3N=CSC3=NC2=O)cc(Br)c1OC(=O)c1ccco1 | inconclusive: 20 µM [inhibitor, single point]
30 | CCOC(=O)Cc1csc(NC(=O)c2cc3ccccc3o2)n1 | inconclusive: 17.8 µM [inhibitor, partial curve]
31 | Oc1c(C(c2ccc(Cl)cc2)N2CCCC2)cc(Cl)c2cccnc12 (stereo not drawn) | inconclusive: 31.6 µM [inhibitor, single point]
32 | COc1cccc(-c2[nH]nc3c2C(c2ccc(C)o2)C(C#N)=C(N)O3)c1 (stereo not drawn) | inconclusive: 25.1 µM [inhibitor, partial curve]
33 | C=CCOc1c(OC)cc(Cl)cc1C1NC(=O)NC(C)=C1C(C)=O (stereo not drawn) | inactive
34 | O=[N+]([O-])c1ccc(N2CCN(c3ccc(O)cc3)CC2)c(Cl)c1 | active: 6.31 µM
35 | Cc1ccc(NC(c2nnc(-c3ccccc3)o2)c2ccccc2F)c([N+](=O)[O-])c1 (stereo not drawn) | inconclusive: 31.6 µM [inhibitor, single point]
36 | O=C1C(C=NC2CC2)=C(O)c2ccccc21 | inconclusive: 20 µM [inhibitor, single point]
37 | C=CCn1c(SCc2c(C)noc2C)nc2sc(C)c(C)c2c1=O | inconclusive: 39.8 µM [inhibitor, single point]
38 | COc1cccc(-c2nnc(SCC(N)=O)n2-c2ccc(Cl)cc2)c1 | inactive
39 | CC(C)(C)C1C/C(=C/c2ccco2)C(=O)/C(=C/c2ccco2)C1 (stereo not drawn) | inconclusive: 15.8 µM [inhibitor, partial curve]
40 | COc1cccc(NC(=O)CSC2=Nc3ccccc3C3=NC(CC(=O)NCc4ccccc4OC)C(=O)N23)c1 (stereo not drawn) | inconclusive: 39.8 µM [inhibitor, single point]
41 | Cn1cc(Cl)c(C(=O)Nc2cnn(Cc3ccc(F)cc3)c2)n1 | inconclusive: 31.6 µM [inhibitor, partial curve]
42 | CN(C)C(=S)Nc1nc2ccccc2s1 | inconclusive: 39.8 µM [inhibitor, single point]
43 | O=C(/C=C\Nc1ccc(Br)cc1)c1cccnc1 | inconclusive: 11.2 µM [inhibitor, partial curve]
44 | O=S(=O)(Nc1nccs1)c1ccc(Br)cc1 | inactive
45 | COc1ccc(Nc2nc(NN)nc(C)c2[N+](=O)[O-])cc1 | active: 14.1 µM
46 | COC(=O)[C@@]1(C)C=C[C@@H](Cc2ccccc2)N1C(=O)c1ccccc1 | inactive

Row | Structure (SMILES) | Potency
47 | COc1ccc(Cn2c(CCC(=O)Nc3ccc(OC)c(Cl)c3)nc3cccnc32)cc1 | inconclusive: 22.4 µM [activator, partial curve]
48 | COc1ccc(N2CCN(C(=O)Nc3ccccc3Cl)CC2)cc1 | inconclusive: 22.4 µM [inhibitor, partial curve]
49 | CCCC(=O)n1nc(-c2cccnc2)nc1NCc1ccccc1 | inconclusive: 2.82 µM [inhibitor, partial curve]
50 | CC[n+]1c(C=C2C=C(C)OC(C)=C2)sc2ccccc21 | active: 25.1 µM
51 | O=C(NCCc1ccc(Cl)cc1)c1ccc(CSCc2ccc(Cl)cc2)o1 | inconclusive: 2 µM [inhibitor, full curve, poor fit]
52 | O=C(CSc1n[nH]c(-c2ccccc2)n1)Nc1ccc(N2CCOCC2)cc1 | inconclusive: 12.6 µM [inhibitor, partial curve]
53 | Cn1c(=O)n(C)c2cc(/C=N/NC(=O)c3cccc(Br)c3)ccc21 | inconclusive: 1.58 µM [inhibitor, full curve]
54 | O=c1c2c3c(sc2n(CCN2CCOCC2)c(=O)n1Cc1ccco1)CCCCC3 | inactive
55 | Cc1ccc(S(=O)(=O)N/N=C\c2ccc(Cl)c([N+](=O)[O-])c2)cc1 | inconclusive: 31.6 µM [inhibitor, partial curve, poor fit]
56 | COc1ccc2nc(NC(=O)C3COc4ccccc4O3)sc2c1 (stereo not drawn) | inconclusive: 0.891 µM [inhibitor, full curve]
57 | COc1ccc(NC2CC(=O)N(C)C2=O)cc1 (stereo not drawn) | inconclusive: 25.1 µM [inhibitor, single point]
58 | Cc1ccnc2nc(NC(=O)c3ccccc3Cl)nn12 | inactive
59 | Cc1cccc(OCC(=O)N(Cc2ccc(N(C)C)cc2)Cc2ccco2)c1C | inconclusive: 22.4 µM [inhibitor, partial curve, poor fit]
60 | O=C(Nc1nc(-c2ccc3c(c2)Cc2ccccc2-3)cs1)c1ccccc1 | inconclusive: 0.562 µM [inhibitor, full curve]
61 | COc1ccc(C(=O)NC(=S)Nc2cccc(NC(=O)c3ccco3)c2)cc1[N+](=O)[O-] | inconclusive: 0.158 µM [inhibitor, partial curve, poor fit]
62 | CC(C)Cn1c(C(C)C)nc([N+](=O)[O-])c1S(=O)(=O)c1ccc(F)cc1 | inconclusive: 28.2 µM [inhibitor, single point]
63 | Cc1cc(C)nc(Nc2nc3ccccc3[nH]2)n1 | inconclusive: 0.0501 µM [activator, full curve, poor fit]
64 | O=C(c1cccc(S(=O)(=O)N2CCc3ccccc3C2)c1)N1CCN(c2ccc(O)cc2)CC1 | inconclusive: 15.8 µM [inhibitor, partial curve]
65 | O=c1cc(CSc2nnnn2-c2ccccc2)nc2sccn12 | inactive
66 | CCOc1ccc(NC(=O)c2c(NCc3cccs3)sc3c2CCCCC3)cc1 | inconclusive: 12.6 µM [inhibitor, partial curve]
67 | COc1cc2c(cc1OC)-c1c(oc3cc(O)cc(O)c3c1=O)CO2 | inconclusive: 17.8 µM [inhibitor, partial curve]
68 | O=C(Nc1nc(-c2ccco2)c(-c2ccco2)s1)C1CC(=O)N(c2ccc3c(c2)OCCO3)C1 (stereo not drawn) | active: 14.1 µM
